Measured values as given in patent publication US20250115571A1, “OXOPIPERAZINE DERIVATIVES” (Inthera Bioscience AG, priority 2017, published 2025).
At least one read-out could not be matched to a standard name with certainty. Marks after values point to notes of the source that are not given here.

Tested on: CaSki cells
Test: Colony Formation Assay (CFA), 14 days
Assay type: cell-based, human
Conditions: colony formation assay, class by % inhibition at 0.7, 6 or 50 μM

SMILES	Activity (inhibition of colony formation)
CC(C)CCC1CCN(C(=O)[C@H](CC(C)C)N2CCN[C@@H](CC(C)C)C2=O)CC1 [Compound 15, (S)-1-{(S)-1-[(4-Isopentyl-1-piperidyl)carbonyl]-3-methylbutyl}-3-isobutyl-2-piperazinone]	+++ (more than 90% inhibition of colony formation at a concentration of 50 μM)
NCCC1CCN(C(=O)[C@H](CC2CC2)N2CCN[C@@H](CC3CC3)C2=O)CC1 [Compound 33, (S)-1-{(S)-2-[4-(2-Aminoethyl)-1-piperidyl]-1-(cyclopropylmethyl)-2-oxoethyl}-3-(cyclopropylmethyl)-2-piperazinone (2TFA)]	++ (more than 50% inhibition of colony formation at a concentration of 50 μM)
CC(C)C[C@@H]1NCCN([C@@H](CC(C)C)C(=O)N2CCC(Cc3ncc[nH]3)CC2)C1=O [Compound 57, (S)-1-[(S)-1-({4-[(1H-Imidazol-2-yl)methyl]-1-piperidyl}carbonyl)-3-methylbutyl]-3-isobutyl-2-piperazinone]	+++ (more than 90% inhibition of colony formation at a concentration of 50 μM)
CC(C)C[C@@H]1NCCN([C@@H](CC(C)C)C(=O)N2CCC3(CC2)SCC(CN(C)C)CS3)C1=O [Compound 251, (S)-1-[(S)-1-({3-[(Dimethyl-amino)methyl]-1,5-dithia-9-aza-9-spiro[5.5]un-decyl}car-bonyl)-3-methylbutyl]-3-isobutyl-2-piperazinone]	++++ (more than 90% inhibition of colony formation at a concentration of 6 μM)
CC(C)C[C@@H]1NCCN([C@@H](CC(C)C)C(=O)N2CCC3CC(N(C)C)CCC3C2)C1=O (stereo partly drawn) [Compound 259, (S)-1-[(S)-1-{[(4aS,8aR)-6-(Dimethylamino)per-hydroisoquinolin-2-yl]carbonyl}-3-methylbutyl]-3-isobutyl-2-piperazinone]	*+ (greater than 0% but less than or equal to 50% inhibition of colony formation at a concentration of 0.7 μM)
CC(C)C[C@@H]1NCCN([C@@H](CC(C)C)C(=O)N2CCC(CS(N)(=O)=O)CC2)C1=O [Compound 84, (1-{(S)-2-[(S)-3-Isobutyl-2-oxo-1-piperazinyl]-4-methylvaleryl}-4-piperidyl)methane-sulfonamide]	+* (greater than 0% but less than or equal to 50% inhibition of colony formation at a concentration of 50 μM)
CCOC(=O)CC1CCN(C(=O)[C@H](CC(C)C)N2CCN[C@@H](CC(C)C)C2=O)CC1 [Compound 12, Ethyl (1-{(S)-2-[(S)-3-isobutyl-2-oxo-1-piperazinyl]-4-methylvaleryl}-4-piperidyl)acetate]	+++ (more than 90% inhibition of colony formation at a concentration of 50 μM)
CC(C)(C)C[C@@H]1NCCN([C@@H](CC2CC2)C(=O)N2CCC(CCN)CC2)C1=O.O=C(O)C(F)(F)F.O=C(O)C(F)(F)F [Compound 35, (S)-1-{(S)-2-[4-(2-Aminoethyl)-1-piperidyl]-1-(cyclopropylmethyl)-2-oxoethyl}-3-neopentyl-2-piperazinone (2TFA)]	++ (more than 50% inhibition of colony formation at a concentration of 50 μM)
CCC1(CC(N)=O)CCN(C(=O)[C@H](CC(C)C)N2CCN[C@@H](CC(C)C)C2=O)CC1 [Compound 36, (1-{(S)-2-[(S)-3-Isobutyl-2-oxo-1-piperazinyl]-4-methylvaleryl}-4-ethyl-4-piperidyl)acetamide]	++ (more than 50% inhibition of colony formation at a concentration of 50 μM)
CC(C)C[C@@H]1NCCN([C@@H](CC(C)C)C(=O)N2CCC3(CC2)CNC(=O)N3)C1=O [Compound 99, 8-{(S)-2-[(S)-3-Isobutyl-2-oxo-1-piperazinyl]-4-methylvaleryl}-1,3,8-triaza-2-spiro[4.5]decanone]	+* (greater than 0% but less than or equal to 50% inhibition of colony formation at a concentration of 50 μM)
CC(C)C[C@@H]1NCCN([C@@H](CC(C)C)C(=O)N2CCC3(CC2)CN(C)C3)C1=O [Compound 67, (S)-1-[(S)-3-Methyl-1-{(2-methyl-2,7-diaza-7-spiro[3.5]nonyl)car-bonyl}butyl]-3-isobutyl-2-piperazinone]	++ (more than 50% inhibition of colony formation at a concentration of 50 μM)
CCN(C(=O)CC1CCN(C(=O)[C@H](CC2CC2)N2CCN[C@@H](CC3CC3)C2=O)CC1)C(C)C [Compound 8, (S)-1-[(S)-2-(4-{2-[N-Ethyl(isopropyl)ami-no]-2-oxoethyl}-1-piperidyl)-1-(cyclopropylmethyl)-2-oxoethyl]-3-(cyclopropylmethyl)-2-piperazinone]	+* (greater than 0% but less than or equal to 50% inhibition of colony formation at a concentration of 50 μM)
CCN(C(=O)C(C)C1CCN(C(=O)[C@H](CC(C)C)N2CCN[C@@H](CC(C)C)C2=O)CC1)C(C)C (stereo partly drawn) [Compound 42, (S)-1-[(S)-1-[(4-{2-[N-Ethyl(isopropyl)ami-no]-1-methyl-2-oxoethyl}-1-piperidyl)carbonyl]-3-methylbutyl]-3-isobutyl-2-piperazinone]	+* (greater than 0% but less than or equal to 50% inhibition of colony formation at a concentration of 50 μM)
CC(C)C[C@@H](C(=O)N1CCC(CC(N)=O)CC1)N1CCN[C@@H](CC2CCCCC2)C1=O [Compound 122, (1-{(S)-2-[(S)-3-(Cyclohexylmethyl)-2-oxo-1-piperazinyl]-4-methylvaleryl}-4-piperidyl)acetamide]	++ (more than 50% inhibition of colony formation at a concentration of 50 μM)
CC(C)C[C@@H](C(=O)N1CCC(CC(N)=O)CC1)N1CCN[C@@H](Cc2ccccc2)C1=O [Compound 89, (1-{(S)-2-[(S)-3-Benzyl-2-oxo-1-piperazinyl]-4-methylvaleryl}-4-piperidyl)acetamide]	+* (greater than 0% but less than or equal to 50% inhibition of colony formation at a concentration of 50 μM)

Same assay, conditions: inhibition of colony formation, 14 days, classes at 6, 50 or 0.7 μM

SMILES	Activity
CC(C)C[C@@H]1NCCN([C@@H](CC(C)C)C(=O)N2CCC(Cc3nccn3CC(C)C)CC2)C1=O [Compound 158, (S)-1-[(S)-1-({4-[(1-Isobutyl-1H-imidazol-2-yl)methyl]-1-piperidyl}carbonyl)-3-methylbutyl]-3-isobutyl-2-piperazinone]	+++ (more than 90% inhibition of colony formation at a concentration of 50 μM)
CC(C)C[C@@H]1NCCN([C@@H](CC(C)C)C(=O)N2CCC(COc3ccccc3C#N)CC2)C1=O [Compound 171, o-[(1-{(S)-2-[(S)-3-Isobutyl-2-oxo-1-piperazinyl]-4-methylvaleryl}-4-piperidyl)meth-oxy]benzonitrile]	+++ (more than 90% inhibition of colony formation at a concentration of 50 μM)
CC(=O)c1cccc(OCC2CCN(C(=O)[C@H](CC(C)C)N3CCN[C@@H](CC(C)C)C3=O)CC2)c1 [Compound 226, (S)-1-[(S)-1-({4-[(m-Acetylphenoxy)methyl]-1-piperidyl}carbonyl)-3-methylbutyl]-3-isobutyl-2-piperazinone]	+++ (more than 90% inhibition of colony formation at a concentration of 50 μM)
CC(C)C[C@@H]1NCCN([C@@H](CC(C)C)C(=O)N2CCC3(C[C@@H]2C)OCC(CN2CCC(F)(F)CC2)CO3)C1=O (stereo partly drawn) [Compound 315, (S)-1-[(S)-1-({(S)-3-[(4,4-Difluoro-1-piperidyl)methyl]-8-methyl-1,5-dioxa-9-aza-9-spiro[5.5]undecyl}car-bonyl)-3-methylbutyl]-3-isobutyl-2-piperazinone]	++++ (more than 90% inhibition of colony formation at a concentration of 6 μM)
COC(=O)c1cccc(OCC2CCN(C(=O)[C@H](CC(C)C)N3CCN[C@@H](CC(C)C)C3=O)CC2)c1 [Compound 224, Methyl m-[(1-{(S)-2-[(S)-3-isobutyl-2-oxo-1-piperazinyl]-4-methylvaleryl}-4-piperidyl)meth-oxy]benzoate]	+++ (more than 90% inhibition of colony formation at a concentration of 50 μM)
C=CCOC(=O)CC1CCN(C(=O)[C@H](CC(C)C)N2CCN[C@@H](CC(C)C)C2=O)CC1 [Compound 196, Allyl (1-{(S)-2-[(S)-3 isobutyl-2-oxo-1-piperazinyl]-4-methylvaleryl}-4-piperidyl)acetate]	+* (greater than 0% but less than or equal to 50% inhibition of colony formation at a concentration of 50 μM)
CC(C)C[C@@H]1NCCN([C@@H](CC(C)C)C(=O)N2CCC(Cc3nc4c(n3C)CCC4)CC2)C1=O [Compound 141, (S)-1-[(S)-3-Methyl-1-{[4-({4-methyl-2.4-diazabicyclo[3.3.0]octa-1(5),2-dien-3-yl}methyl)-1-piperidyl]car-bonyl}butyl]-3-isobutyl-2-piperazinone]	+++ (more than 90% inhibition of colony formation at a concentration of 50 μM)
CC(C)C[C@@H]1NCCN([C@@H](CC(C)C)C(=O)N2CCC(COc3cccc(C#N)c3)CC2)C1=O [Compound 172, m-[(1-{(S)-2-[(S)-3-Isobutyl-2-oxo-1-piperazinyl]-4-methylvaleryl}-4-piperidyl)meth-oxy]benzonitrile]	+++ (more than 90% inhibition of colony formation at a concentration of 50 μM)
CC(C)C[C@@H]1NCCN([C@@H](CC(C)C)C(=O)N2CCC(CC(=O)OCC3CCC3)CC2)C1=O [Compound 205, Cyclobutylmethyl (1-{(S)-2-[(S)-3-isobutyl-2-oxo-1-piperazinyl]-4-methylvaleryl}-4-piperidyl)acetate]	++ (more than 50% inhibition of colony formation at a concentration of 50 μM)
CC(C)C[C@@H]1NCCN([C@@H](CC(C)C)C(=O)N2CCC(COc3ccccc3Cl)CC2)C1=O [Compound 169, (S)-1-[(S)-1-({4-[(o-Chlorophenoxy)methyl]-1-piperidyl}carbonyl)-3-methylbutyl]-3-isobutyl-2-piperazinone]	+++ (more than 90% inhibition of colony formation at a concentration of 50 μM)
CC(C)C[C@@H]1NCCN([C@@H](CC(C)C)C(=O)N2CCC(COc3ccc(CC(=O)O)cc3)CC2)C1=O [Compound 215, {p-[(1-{(S)-2-[(S)-3-Isobutyl-2-oxo-1-piperazinyl]-4-methylvaleryl}-4-piperidyl)methoxy]phenyl} acetic acid]	+* (greater than 0% but less than or equal to 50% inhibition of colony formation at a concentration of 50 μM)
